In PubChem BioAssay AID1963576 (National Center for Advancing Translational Sciences (NCATS), 2024):
The campaign covered roughly 46,000 compounds. About 60 (0.1%) were called active. Roughly 3% stayed inconclusive and do not appear here. The call rests on the fitted dose curve; in most records, active means well fitted inhibition curve with a large enough effect; inconclusive means small, poorly fitted or top-dose-only effect; inactive means no such curve, though single readings can be large or run the other way. This is one part of the list.

experiment: Primary qHTS assay for Inhibitors of ovarian cancer metastasis using an organotypic tumor microenvironment (TME) model.; further: nearly all actives have a fitted effect of over 65% in size;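 on activity change, negative = inhibition: plate controls were DMSO wells for no effect and tomatine positive control wells for full effect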; settings: SKOV3ip1-GFP adhesion/invasion on 3D omental model, fluorescence; series mostly up to 45.8 µM; activity change, negative = inhibition: at the top concentration
Procedure, shortened: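 A 3D layer of primary human omental fibroblasts, mesothelial cells, fibronectin and collagen I, grown 48 hr, received SKOV3ip1-GFP cells in serum-free medium plus compounds at 0.36-46 umol/L. After 2 hr RT and 16 hr 37 C, fixed adherent GFP cells were counted; normalized to DMSO and tomatine.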

Activity change, negative = inhibition, inactive:
CCc1ccccc1NC(=O)c1cc(-c2ccc3c(c2)OCO3)on1 -7.79%
COc1ccc(Br)cc1CNC(=O)C1COc2ccccc2C1 (stereo unspecified) -2.3%
Cc1ccc2oc(-c3cc(NC(=O)c4cccs4)cc(C)c3O)nc2c1 10.2%
O=C(Nc1ccc(C(=O)N2CCN(c3ccc(Cl)cc3)CC2)cc1)c1nsc2ccccc12 3.13%
O=c1c(-c2ccc(O)cc2)coc2cc(O)ccc12 3.34%
Cc1ccc(-c2nnc(Nc3cccc(C(F)(F)F)c3)c3ccccc23)cc1S(=O)(=O)N1CCOCC1 -12.2%
CC(C)(C)c1ccc(-c2noc(CCC(=O)Nc3cccc(Cl)c3)n2)cc1 1.66%
O=C(O)CCCCC(CCSCc1ccccc1)SCc1ccccc1 (stereo unspecified) 10.4%
CCOC(=O)N1CCN(C(=O)CN(c2cc(C)ccc2OC)S(=O)(=O)c2ccc(C)cc2)CC1 19.5%
Cc1ccc(Cl)cc1N1CCN(c2ncnc3onc(-c4ccc(F)cc4)c23)CC1 0.319%
Cc1ccc(Cn2c(C)c(CNC(C)c3ccccc3)c(C(=O)O)c2C)cc1 (stereo unspecified) 10.1%
Cc1ccc(-n2c(SCC(N)=O)nc3c([nH]c4ccccc43)c2=O)cc1 -6.45%
O=C(c1ccc(CS(=O)(=O)c2c(Cl)cccc2Cl)o1)N1CCN(c2ccccc2)CC1 -2.72%
COc1nc(-c2ccc(C)cc2)ccc1-c1noc(-c2ccc(C(C)(C)C)cc2)n1 4.36%
COc1ccccc1N1CCN(c2cc(C)nc3nc(-c4ccc(Cl)cc4)nn23)CC1 32.8%
Cc1ccc(NC(=O)c2cc(S(=O)(=O)N3CCCC3)c[nH]2)c(C)c1 -1.78%
COc1ccc(OC)c(S(=O)(=O)NCCc2csc3nc(-c4ccccc4)nn23)c1 2.4%
CC1CCN(S(=O)(=O)c2nnc(NC(=O)c3cccc(F)c3)s2)CC1 3.5%
COC(=O)c1sc2cccc(F)c2c1S(=O)(=O)N1CCN(c2ccc(C)cc2C)CC1 3.62%
CCOc1ccccc1CNC(=O)C1CCCN(S(=O)(=O)c2ccc3c(ccn3C)c2)C1 (stereo unspecified) -6.66%
CCc1ccc(-n2nc(C)c3c(C(=O)Nc4cc(C)ccc4C)cc(C)nc32)cc1 8.4%
Cc1c(C(=O)N(Cc2ccc(N(C)C)cc2)CC2CCCO2)oc2ccc(Br)cc12 (stereo unspecified) -9.27%
Cc1ccc(N2CCN(c3nc4c(S(=O)(=O)c5ccc(C)c(C)c5)nnn4c4ccccc34)CC2)c(C)c1 -4.09%
CCc1cccc(C)c1NC(=O)CN(C)S(=O)(=O)c1cccc2nsnc12 -6.57%
CCN1CCN(c2cc(C)c3cc(NC(=O)c4ccccc4F)ccc3n2)CC1 -14.8%
CCOC(=O)c1c(NC(=O)COc2ccc(Cl)cc2C)sc(C(C)=O)c1C -1.73%
CCc1c(C)c2ccc(O)c(CN3CCN(c4ccccc4)CC3)c2oc1=O -2.1%
COc1ccc(C)cc1NC(=O)N1CCC(CN2CCC(C)CC2)CC1 10.4%
Cc1ccc(S(=O)(=O)c2cn(C)c3cc(N4CCCCC4)c(F)cc3c2=O)cc1 9.71%
CCN(CC)S(=O)(=O)c1ccc2oc(C(=O)NCc3ccccc3OC)c(C)c2c1 -18.1%
CCOc1ccc(N(CC)S(=O)(=O)N2CCCC(C(=O)NCCc3ccc(OC)cc3)C2)cc1 (stereo unspecified) -5.81%
COCCCNC(=O)c1ccc(Cn2c(SCc3cccc(C)c3)nc3cccnc32)cc1 7.3%
COC(=O)c1ccccc1NC(=O)Cn1c(=O)n(-c2cccc(C(F)(F)F)c2)c(=O)c2c(C)c(C)sc21 -22.6%
Cc1cccc2sc(N(CCCN(C)C)C(=O)COc3ccccc3)nc12 -1.32%
Cc1cc(C)c2c(n1)sc1c(=O)n(-c3cc(Cl)ccc3C)nnc12 11%
CCCn1c(CCCNC(=O)c2ccccc2OC)nc2ccccc21 20.9%
CCOC(=O)C1CCCN(C(=O)c2nn(-c3ccc(C)cc3)c(=O)c3c2c2ccccc2n3C)C1 (stereo unspecified) -4.89%
O=C(/C=C\c1ccccc1)NC1CC(=O)N(c2ccccc2)C1 (stereo unspecified) -5.6%
CCOc1ccc(CNS(=O)(=O)c2ccc(-c3coc(C)n3)cc2)cc1OC -3.46%
CCN(Cc1ccccc1)C(=O)c1sc2nc3n(c(=O)c2c1C)CCCC3 20.7%
CCc1ccc2c(c1)-c1ccccc1S(=O)(=O)N2CC(=O)N1CCCCC1 0.694%
COc1cccc(NC(=O)c2cnc(SCC(=O)N3CCOCC3)n(C)c2=O)c1 3.99%
Cc1ccc(Cl)cc1N1CCN(C(=O)CN2C(=O)CSc3c2c(C)nn3-c2ccccc2)CC1 31.1%
O=C(NCc1cccs1)c1ccc(Cn2c(SCc3ccc(F)cc3)nc3cccnc32)cc1 4.82%
COCCNC(=O)Cn1c(=O)n(CCCCCC(=O)Nc2ccccc2)c(=O)c2sccc21 -2.1%
O=S(=O)(c1ccccc1)c1nnn2c1nc(NCc1ccccc1)c1sccc12 12.2%
COc1ccc(/C=C(\C#N)c2nc3ccccc3n2C)c(OC)c1 13.2%
CCN(CC)CCCNC(=O)CN1N=C(c2ccc(OC)cc2)CCC1=O -5.75%
COc1ccc(CNC(=O)CCCn2c(=O)c3cccn3c3cccnc32)cc1 2.52%
CCc1ccc(CNC(=O)c2c(C)oc3ncn(CC(C)C)c(=O)c23)cc1 -3.36%
COc1cc(Cl)c(C)cc1NC(=O)Cn1ncc2c3ccccc3n(Cc3ccccc3)c2c1=O 0.646%
COc1ccc(C(=O)N2c3ccc(C)cc3C(C)(c3ccccc3)CC2(C)C)cc1 (stereo unspecified) 8.61%

outcome, inactive:
CCOCN(C(=O)Cn1cnc2cc(C)c(C)cc21)c1c(C)cccc1CC
Cc1cccc(N2CCN(C(=O)c3ccc4c(c3)c(C)c(C)n4C)CC2C)c1 (stereo unspecified)
CC(=O)N1CCc2cc(Br)cc(S(=O)(=O)CCC(=O)Nc3ccc(C)cc3Cl)c21
CCOc1ccc2oc(=O)cc(CN3CCN(c4ccc(Cl)cc4)CC3)c2c1
Cc1ccc(S(=O)(=O)NCC2CCC(C(=O)NCCc3ccc(Cl)cc3)CC2)cc1 (stereo unspecified)
Cc1ccc(C)c(N2CCN(C(=O)c3cc(S(=O)(=O)N4CCCCCC4)cn3C)CC2)c1
CCC(=O)N1c2ccc(S(=O)(=O)CCC(=O)Nc3ccc(Br)c(C)c3)cc2CC1C (stereo unspecified)
CCN(CC)CCCNC(=O)c1nn(-c2ccc(C)cc2)c(=O)c2c1c1ccccc1n2C
CCOCCCN(Cc1ccco1)C(=O)c1cc2c(=O)[nH]c3ccc(C)cc3c2s1
